Laboratory results as given in the antibiotic and cytotoxicity screens of Wong et al. (2023).
This is one part of the list.

Columns and labels:
HSkMC = human skeletal muscle cells; assay: cytotoxicity call (relative viability < 0.9); details: 10 µM
HepG2 = assay: cytotoxicity call (relative viability < 0.9); details: 10 µM
S. aureus RN4220 = assay: growth inhibition call (relative growth <= 0.2); details: 50 µM

Compound | cytotoxicity call (HSkMC) | cytotoxicity call (HepG2) | growth inhibition call (S. aureus RN4220)
NC(=O)c1ccccc1C(N)=O | inactive | inactive | inactive
C[C@H](CO)N1C[C@H](C)[C@@H](CN(C)C(=O)NC2CCCCC2)Oc2c(NS(C)(=O)=O)cccc2C1=O | inactive | inactive | inactive
C[C@@H]1CN([C@@H](C)CO)C(=O)c2cc(NC(=O)CCN3CCOCC3)ccc2O[C@H]1CN(C)S(=O)(=O)c1cn(C)cn1 | inactive | inactive | inactive
C[C@H]1CN([C@@H](C)CO)C(=O)CCCn2cc(nn2)CO[C@@H]1CN(C)C(=O)Nc1ccc(C(F)(F)F)cc1 | inactive | inactive | inactive
C[C@@H]1CCCCO[C@H](CN(C)C(=O)Nc2ccc(F)cc2)[C@H](C)CN([C@@H](C)CO)C(=O)c2cc(NS(=O)(=O)c3ccc(F)cc3)ccc2O1 | inactive | inactive | inactive
C[C@@H]1CN([C@H](C)CO)C(=O)c2cccc(NS(=O)(=O)c3ccc(F)cc3)c2O[C@@H]1CN(C)CC1CC1 | inactive | inactive | inactive
C[C@@H]1CN([C@@H](C)CO)C(=O)c2cccc(NC(=O)Nc3ccc4c(c3)OCO4)c2O[C@H]1CN(C)S(C)(=O)=O | inactive | inactive | inactive
C[C@@H]1CN([C@@H](C)CO)C(=O)c2cccc(NC(=O)c3cnccn3)c2O[C@H]1CN(C)S(C)(=O)=O | inactive | inactive | inactive
Cc1cc(C(=O)Nc2cccc3c2O[C@H](CN(C)C(=O)NC(C)C)[C@H](C)CN([C@H](C)CO)C3=O)n(C)n1 | inactive | inactive | inactive
Cc1noc(C)c1S(=O)(=O)Nc1ccc2c(c1)C(=O)N([C@H](C)CO)C[C@@H](C)[C@@H](CN(C)CC1CC1)O2 | inactive | inactive | inactive
C[C@H]1CN([C@@H](C)CO)C(=O)Cc2cc(NC(=O)Cc3ccccc3)ccc2O[C@@H]1CN(C)S(=O)(=O)c1ccc(F)cc1 | inactive | inactive | inactive
COc1ccc(S(=O)(=O)Nc2ccc3c(c2)C(=O)N([C@H](C)CO)C[C@@H](C)[C@H](CN(C)CC2CC2)O3)cc1 | inactive | inactive | inactive
COCC(=O)N1C[C@H](C)[C@@H](OC)CN(C)C(=O)c2ccc(NC(=O)c3cc(C)on3)cc2OC[C@@H]1C | inactive | inactive | inactive
Cc1ccc(S(=O)(=O)Nc2ccc3c(c2)C(=O)N([C@@H](C)CO)C[C@H](C)[C@H](CN(C)CC2CCCCC2)OCCCC[C@H](C)O3)cc1 | inactive | inactive | inactive
Cc1noc(C)c1NC(=O)N[C@H]1C=C[C@@H](CC(=O)N2CCN(C)CC2)O[C@H]1CO | inactive | inactive | inactive
C[C@@H]1CN([C@@H](C)CO)C(=O)c2cccc(NC(=O)Nc3ccc4c(c3)OCO4)c2O[C@@H]1CN(C)S(=O)(=O)c1cn(C)cn1 | inactive | inactive | inactive
Cc1cc(=O)[nH][nH]1 | inactive | inactive | inactive
COc1ccc(S(=O)(=O)Nc2cccc3c2O[C@H](CN(C)S(=O)(=O)c2cccs2)[C@H](C)CN([C@H](C)CO)C3=O)cc1 | inactive | inactive | inactive
C[C@@H]1CN([C@@H](C)CO)C(=O)Cc2cc(NC(=O)c3ccncc3)ccc2O[C@@H]1CN(C)S(=O)(=O)c1cn(C)cn1 | inactive | inactive | inactive
C[C@H](CO)N1C[C@H](C)[C@H](CN(C)Cc2ccc(Oc3ccccc3)cc2)Oc2c(NS(=O)(=O)c3ccc(Cl)cc3)cccc2C1=O | inactive | inactive | inactive
COc1ccc(C#Cc2cnc3c(c2)C(=O)N([C@H](C)CO)C[C@H](C)[C@H](CN(C)CC2CCOCC2)O3)cc1 | inactive | inactive | inactive
CO[C@@H](C(=O)N(C)C[C@H]1OCc2ccccc2-c2c(n(C)c3ccccc23)C(=O)N([C@@H](C)CO)C[C@H]1C)c1ccccc1 | inactive | inactive | inactive
CO[C@H]1CN(C)C(=O)c2cc(NC(=O)Nc3ccccc3)ccc2OC[C@H](C)N(C(=O)CN(C)C)C[C@H]1C | inactive | inactive | inactive
C[C@@H]1CN([C@@H](C)CO)C(=O)Cc2cc(NC(=O)Cc3cn(C)c4ccccc34)ccc2O[C@H]1CN(C)C(=O)Nc1cccc2ccccc12 | inactive | inactive | inactive
O=C(NCCCO)c1cc2ccccc2oc1=O | inactive | inactive | inactive
CC(C)[Si](C#Cc1ccc(Oc2ccccc2)cc1)(O[Si](C#Cc1ccc(Oc2ccccc2)cc1)(C(C)C)C(C)C)C(C)C | inactive | inactive | inactive
O=C(NCc1ccccc1)C1=C[C@H](c2ccc3c(c2)Cc2ccccc2-3)C[C@H](OCc2ccc(CO)cc2)O1 | inactive | inactive | inactive
C[C@@H]1CN([C@H](C)CO)C(=O)Cc2cc(NC(=O)Nc3ccccc3)ccc2O[C@@H]1CN(C)C(=O)Nc1cccc2ccccc12 | inactive | inactive | inactive

Compound | cytotoxicity call (HSkMC) | cytotoxicity call (HepG2) | growth inhibition call (S. aureus RN4220)
O=C(O)c1ccc(Nc2cn[nH]c(=O)n2)cc1O | inactive | inactive | inactive
C[C@@H]1CN([C@@H](C)CO)C(=O)c2cccc(NC(=O)C3CCOCC3)c2O[C@H]1CN(C)Cc1ccc(Oc2ccccc2)cc1 | inactive | inactive | inactive
COc1ccc(S(=O)(=O)Nc2ccc3c(c2)C(=O)N([C@H](C)CO)C[C@@H](C)[C@@H](CN(C)CC2CCCCC2)OCCCC[C@H](C)O3)cc1 | inactive | inactive | inactive
C[C@@H]1CN([C@H](C)CO)C(=O)c2cc(C#CC(C)(C)O)cnc2O[C@@H]1CN(C)C(=O)CN(C)C | inactive | inactive | inactive
C[C@@H]1CN([C@@H](C)CO)C(=O)Cc2cc(NC(=O)Nc3ccc(C(F)(F)F)cc3)ccc2O[C@@H]1CN(C)Cc1ccc(Cl)c(Cl)c1 | active | active | inactive
C[C@@H]1CCCCO[C@H](CN(C)C(=O)Cc2ccccc2)[C@H](C)CN([C@@H](C)CO)C(=O)c2cc(NC(=O)Cc3ccccc3)ccc2O1 | inactive | inactive | inactive
C[C@@H]1CCCCO[C@H](CN(C)C(=O)CCC(F)(F)F)[C@H](C)CN([C@@H](C)CO)C(=O)c2cc(NC(=O)c3ccccc3)ccc2O1 | inactive | inactive | inactive
COCCNC(=O)C[C@@H]1CC[C@H](NS(=O)(=O)c2ccc(C)cc2)[C@@H](CO)O1 | inactive | inactive | inactive
CC(C)NC(=O)[C@@H](N)c1ccccc1 | inactive | inactive | inactive
Cc1cc(O)cc(C)c1Cl | inactive | active | inactive
C[C@H]1CN([C@@H](C)CO)C(=O)c2cccc(NC(=O)C3CCOCC3)c2O[C@@H]1CN(C)S(=O)(=O)c1cccs1 | inactive | inactive | inactive
C[C@@H]1CN([C@@H](C)CO)C(=O)c2cc(NC(=O)NC3CCCCC3)ccc2O[C@H]1CN(C)C(=O)Nc1ccc(C(F)(F)F)cc1 | inactive | inactive | inactive
C[C@H](CO)N1C[C@H](C)[C@@H](CN(C)Cc2ccc(C(F)(F)F)cc2)Oc2c(NC(=O)Nc3ccc4c(c3)OCO4)cccc2C1=O | inactive | inactive | inactive
Cc1noc(C)c1S(=O)(=O)Nc1ccc2c(c1)C(=O)N([C@H](C)CO)C[C@@H](C)[C@@H](CN(C)Cc1ccc(Oc3ccccc3)cc1)O2 | inactive | inactive | inactive
Cc1ccc(S(=O)(=O)Nc2ccc3c(c2)C(=O)N([C@H](C)CO)C[C@H](C)[C@H](CN(C)S(=O)(=O)c2ccc(C)cc2)OCCCC[C@@H](C)O3)cc1 | inactive | inactive | inactive
COc1cc(C=CC(=O)C=C(O)C=Cc2ccc(O)c(OC)c2)ccc1O | inactive | active | inactive
C[C@H]1CN([C@@H](C)CO)C(=O)c2cccc(NC(=O)Nc3ccc(F)cc3)c2O[C@@H]1CN(C)Cc1ccc(C(F)(F)F)cc1 | active | inactive | inactive
COc1ccc(S(=O)(=O)N(C)C[C@@H]2Oc3ccc(NC(=O)CCCN(C)C)cc3C(=O)N([C@@H](C)CO)C[C@H]2C)cc1 | inactive | inactive | inactive
C[C@@H]1CN([C@@H](C)CO)C(=O)c2cc(NC(=O)Nc3ccc4c(c3)OCO4)ccc2O[C@@H](C)CCCCO[C@H]1CN(C)C(=O)Cc1ccccc1 | inactive | inactive | inactive
C[C@@H]1CN([C@H](C)CO)C(=O)c2cc(NC(=O)Nc3cccc4ccccc34)ccc2O[C@@H](C)CCCCO[C@H]1CN(C)Cc1ccc(C(=O)O)cc1 | inactive | inactive | inactive
C[C@H]1CN([C@@H](C)CO)C(=O)Cc2cc(NC(=O)C3CCCCC3)ccc2O[C@@H]1CN(C)S(C)(=O)=O | inactive | inactive | inactive
C[C@@H]1CN([C@H](C)CO)C(=O)Cc2cc(NC(=O)c3ccncc3)ccc2O[C@H]1CN(C)C(=O)NC1CCCCC1 | inactive | inactive | inactive
C[C@H](CO)N1C[C@H](C)[C@H](CN(C)C(=O)Nc2cccc3ccccc23)Oc2ncc(C#CCC3CCCC3)cc2C1=O | inactive | inactive | inactive
CCCNC(=O)N(C)C[C@@H]1Oc2cc(C#Cc3cccc(F)c3)ccc2S(=O)(=O)N([C@@H](C)CO)C[C@@H]1C | inactive | inactive | inactive
C[C@@H]1CN([C@H](C)CO)C(=O)c2cc(NS(C)(=O)=O)ccc2O[C@@H](C)CCCCO[C@H]1CN(C)C(=O)Nc1ccc(C(F)(F)F)cc1 | inactive | inactive | inactive
Cc1noc(C)c1NC(=O)N(C)C[C@@H]1OCCCC[C@H](C)Oc2ccc(NC(=O)CCC(F)(F)F)cc2C(=O)N([C@@H](C)CO)C[C@@H]1C | inactive | inactive | inactive
O=c1[nH]cnc2[nH]ncc12 | inactive | inactive | inactive
